Drawing on article PMC5392987, this text covers binding for five molecules.

By UniProt entry, the sequences of proteins in these tests, tags left out.
UniProt A1ZAW0: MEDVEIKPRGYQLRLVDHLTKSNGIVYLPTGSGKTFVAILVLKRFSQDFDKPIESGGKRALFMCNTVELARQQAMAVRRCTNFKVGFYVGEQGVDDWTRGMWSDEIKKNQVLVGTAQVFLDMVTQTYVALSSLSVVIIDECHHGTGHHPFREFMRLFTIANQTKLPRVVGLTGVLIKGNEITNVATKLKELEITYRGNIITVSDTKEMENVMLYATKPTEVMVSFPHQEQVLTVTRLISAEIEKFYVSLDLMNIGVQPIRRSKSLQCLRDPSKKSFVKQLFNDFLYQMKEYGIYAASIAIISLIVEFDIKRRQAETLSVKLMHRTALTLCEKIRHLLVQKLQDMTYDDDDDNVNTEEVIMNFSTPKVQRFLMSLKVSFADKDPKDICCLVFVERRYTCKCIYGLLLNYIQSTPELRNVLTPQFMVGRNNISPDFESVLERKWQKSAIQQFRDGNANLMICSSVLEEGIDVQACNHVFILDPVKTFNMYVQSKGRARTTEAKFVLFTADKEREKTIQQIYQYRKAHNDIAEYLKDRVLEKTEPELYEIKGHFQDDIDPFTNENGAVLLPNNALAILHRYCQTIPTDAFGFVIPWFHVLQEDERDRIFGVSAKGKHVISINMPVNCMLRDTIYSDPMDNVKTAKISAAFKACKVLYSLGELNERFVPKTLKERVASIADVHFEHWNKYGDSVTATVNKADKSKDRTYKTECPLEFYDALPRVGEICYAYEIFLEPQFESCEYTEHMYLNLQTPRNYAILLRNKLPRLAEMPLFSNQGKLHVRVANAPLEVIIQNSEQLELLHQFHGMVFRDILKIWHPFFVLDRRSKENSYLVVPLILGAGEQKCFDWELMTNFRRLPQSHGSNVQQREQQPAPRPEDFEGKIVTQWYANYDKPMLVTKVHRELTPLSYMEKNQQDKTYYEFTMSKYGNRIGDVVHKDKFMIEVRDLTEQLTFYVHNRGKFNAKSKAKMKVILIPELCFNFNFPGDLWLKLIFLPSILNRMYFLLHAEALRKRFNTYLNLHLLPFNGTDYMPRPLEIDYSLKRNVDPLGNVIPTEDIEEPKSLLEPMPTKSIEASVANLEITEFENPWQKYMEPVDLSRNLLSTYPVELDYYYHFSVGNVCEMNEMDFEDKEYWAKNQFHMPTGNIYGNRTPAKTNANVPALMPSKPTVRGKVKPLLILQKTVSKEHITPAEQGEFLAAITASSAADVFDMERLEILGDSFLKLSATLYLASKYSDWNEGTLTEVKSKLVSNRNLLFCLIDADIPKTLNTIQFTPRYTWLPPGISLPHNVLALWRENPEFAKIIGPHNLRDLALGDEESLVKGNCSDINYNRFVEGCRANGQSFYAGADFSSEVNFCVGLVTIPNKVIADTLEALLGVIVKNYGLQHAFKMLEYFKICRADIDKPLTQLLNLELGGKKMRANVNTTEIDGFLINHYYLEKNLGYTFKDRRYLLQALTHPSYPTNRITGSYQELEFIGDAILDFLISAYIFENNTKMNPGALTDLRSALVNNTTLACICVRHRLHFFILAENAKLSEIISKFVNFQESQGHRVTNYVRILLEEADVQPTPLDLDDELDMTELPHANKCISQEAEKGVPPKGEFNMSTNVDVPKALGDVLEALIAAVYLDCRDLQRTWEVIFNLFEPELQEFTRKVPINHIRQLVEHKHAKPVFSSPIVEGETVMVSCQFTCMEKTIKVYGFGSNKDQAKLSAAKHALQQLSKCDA

Results are given in words; binding and its absence hold for the method and conditions named. In cells and extracts the contact can be indirect. Some binding calls cover weakened binding; strength is not graded here. For some assays here: Tags and fused reporters may be left off the sequences shown.

In assay [1] the target is Dicer2 (endogenous) (Drosophila melanogaster (endogenous in Dmel-2 cells)) (UniProt A1ZAW0). Briefly: co-IP; endogenous Dcr2 or Symplekin immunoprecipitated from 175 ug refined cytoplasmic extract of Dmel-2 cells, dialysed in Buffer D (20 mM HEPES/KOH pH 7.9, 20% glycerol, 100 mM KCl, 0.2 mM EDTA, 0.5 mM DTT); western blot.
The target is the same in assay [2]. Briefly: co-IP; endogenous Dcr2 immunoprecipitated from 100 ug crude nuclear extract of Drosophila culture cells; western blot; beads and anti-Myc as negative controls. A general note: In western blotting, separated proteins are transferred to a membrane and probed.
For assay [3] the target is unchanged. Briefly: co-IP; endogenous Dcr2 or Symplekin immunoprecipitated from 175 ug refined nuclear extract of Dmel-2 cells, dialysed in Buffer D (20 mM HEPES/KOH pH 7.9, 20% glycerol, 100 mM KCl, 0.2 mM EDTA, 0.5 mM DTT); western blot.
The target in assay [4] is T1, Symplekin (endogenous) (Drosophila melanogaster (endogenous in Dmel-2 cells)) (UniProt Q8MSU4).
T1 sequence: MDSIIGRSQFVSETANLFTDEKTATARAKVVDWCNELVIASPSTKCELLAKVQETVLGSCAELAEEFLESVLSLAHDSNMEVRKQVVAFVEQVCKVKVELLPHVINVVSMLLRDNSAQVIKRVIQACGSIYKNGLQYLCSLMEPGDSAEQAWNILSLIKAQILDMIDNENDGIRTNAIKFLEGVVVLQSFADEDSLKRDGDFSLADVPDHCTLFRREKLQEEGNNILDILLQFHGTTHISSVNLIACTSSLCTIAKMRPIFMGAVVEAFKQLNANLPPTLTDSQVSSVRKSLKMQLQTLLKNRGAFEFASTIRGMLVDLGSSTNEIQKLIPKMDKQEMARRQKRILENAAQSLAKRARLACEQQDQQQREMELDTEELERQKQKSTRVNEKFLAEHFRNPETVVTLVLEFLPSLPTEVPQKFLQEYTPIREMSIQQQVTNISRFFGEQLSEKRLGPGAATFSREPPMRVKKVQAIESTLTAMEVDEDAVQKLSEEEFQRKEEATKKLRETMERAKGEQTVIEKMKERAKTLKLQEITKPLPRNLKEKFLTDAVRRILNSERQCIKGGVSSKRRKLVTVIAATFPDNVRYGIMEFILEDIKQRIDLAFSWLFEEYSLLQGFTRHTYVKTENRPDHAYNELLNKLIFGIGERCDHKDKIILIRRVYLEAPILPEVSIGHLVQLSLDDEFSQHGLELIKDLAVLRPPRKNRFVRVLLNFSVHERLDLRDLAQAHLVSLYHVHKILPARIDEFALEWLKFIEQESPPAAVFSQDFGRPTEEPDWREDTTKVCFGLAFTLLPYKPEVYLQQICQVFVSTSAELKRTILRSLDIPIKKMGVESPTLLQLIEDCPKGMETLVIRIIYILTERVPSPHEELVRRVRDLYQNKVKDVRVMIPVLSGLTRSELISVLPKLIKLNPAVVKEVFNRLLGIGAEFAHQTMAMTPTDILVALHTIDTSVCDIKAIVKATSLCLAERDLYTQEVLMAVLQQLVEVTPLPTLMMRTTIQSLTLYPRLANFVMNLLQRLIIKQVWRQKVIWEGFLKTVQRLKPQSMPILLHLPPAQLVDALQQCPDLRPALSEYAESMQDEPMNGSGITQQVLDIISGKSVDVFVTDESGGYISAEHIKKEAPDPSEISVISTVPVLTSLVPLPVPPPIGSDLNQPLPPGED
The description is as above.

Assay [5] has as its target Dicer2 (endogenous) (Drosophila melanogaster (endogenous in Dmel-2 cells)) (UniProt A1ZAW0). Briefly: co-IP; endogenous Dcr2 immunoprecipitated from Dmel-2 cells stably expressing HA-tagged proteins; western blot for HA.
Assay [6] deals with T2, HA-Symp (272-1165) (Drosophila melanogaster) (UniProt Q8MSU4).
T2 sequence: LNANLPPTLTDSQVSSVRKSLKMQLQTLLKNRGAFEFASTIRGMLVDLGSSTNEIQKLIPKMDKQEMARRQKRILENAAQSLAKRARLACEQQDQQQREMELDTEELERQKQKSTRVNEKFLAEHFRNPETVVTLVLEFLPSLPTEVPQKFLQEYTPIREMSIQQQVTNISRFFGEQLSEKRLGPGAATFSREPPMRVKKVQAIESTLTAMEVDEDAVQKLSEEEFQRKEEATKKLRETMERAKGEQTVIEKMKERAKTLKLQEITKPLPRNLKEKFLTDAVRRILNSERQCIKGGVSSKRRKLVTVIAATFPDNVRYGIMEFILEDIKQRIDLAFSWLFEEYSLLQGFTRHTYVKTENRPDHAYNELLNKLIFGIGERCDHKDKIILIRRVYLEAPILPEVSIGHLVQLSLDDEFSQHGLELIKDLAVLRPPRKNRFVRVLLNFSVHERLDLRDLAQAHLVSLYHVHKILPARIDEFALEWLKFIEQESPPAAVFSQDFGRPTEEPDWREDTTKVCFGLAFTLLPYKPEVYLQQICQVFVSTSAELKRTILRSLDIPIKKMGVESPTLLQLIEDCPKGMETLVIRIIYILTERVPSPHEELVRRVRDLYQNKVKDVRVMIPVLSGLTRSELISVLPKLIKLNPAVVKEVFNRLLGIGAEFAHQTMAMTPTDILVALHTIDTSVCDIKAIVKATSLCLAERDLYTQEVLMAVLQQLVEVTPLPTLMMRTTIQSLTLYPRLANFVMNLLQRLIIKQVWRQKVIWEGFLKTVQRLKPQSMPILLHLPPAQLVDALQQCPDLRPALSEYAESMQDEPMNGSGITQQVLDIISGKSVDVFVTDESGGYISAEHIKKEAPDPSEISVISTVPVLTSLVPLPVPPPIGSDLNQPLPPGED
Nature of the assay: co-IP; Dmel-2 cells expressing HA-Symp (272-1165), endogenous Symplekin RNAi-depleted; IP and western blot.

B1: R2D2 (endogenous) (protein, UniProt Q9VLW8 1-311)
chain: MDNKSAVSALQEFCARTQINLPTYSFIPGEDGGYVCKVELLEIEALGNGRSKRDAKHLAASNILRKIQLLPGIHGLMKDSTVGDLDEELTNLNRDMVKELRDYCVRREMPLPCIEVVQQSGTPSAPEFVACCSVASIVRYGKSDKKKDARQRAAIEMLALISSNSDNLRPDQMQVASTSKLKVVDMEESMEELEALRRKKFTTYWELKEAGSVDHTGMRLCDRHNYFKNFYPTLKKEAIEAINSDEYESSKDKAMDVMSSLKITPKISEVESSSLVPLLSVELNCAFDVVLMAKETDIYDHIIDYFRTMLI
In the case of B1, the binding entry in assay [1] is on record as “binds”; in assay [2] it was “binds”; in assay [3] it was “binds”; in assay [4] it was “no binding”.

B2: HA-Symp (1-271) (domain or fragment, UniProt Q8MSU4 1-271)
chain: MDSIIGRSQFVSETANLFTDEKTATARAKVVDWCNELVIASPSTKCELLAKVQETVLGSCAELAEEFLESVLSLAHDSNMEVRKQVVAFVEQVCKVKVELLPHVINVVSMLLRDNSAQVIKRVIQACGSIYKNGLQYLCSLMEPGDSAEQAWNILSLIKAQILDMIDNENDGIRTNAIKFLEGVVVLQSFADEDSLKRDGDFSLADVPDHCTLFRREKLQEEGNNILDILLQFHGTTHISSVNLIACTSSLCTIAKMRPIFMGAVVEAFKQ
On to B2, for which, in assay [5], the binding result is “binds”.

B3: CPSF100 (endogenous) (protein, UniProt Q9V3D6 1-756)
chain: MTSIIKLHTISGAMDESPPCYILQIDDVRILLDCGWDEKFDANFIKELKRQVHTLDAVLLSHPDAYHLGALPYLVGKLGLNCPIYATIPVFKMGQMFMYDLYMSHFNMGDFDLFSLDDVDTAFEKITQLKYNQTVSLKDKGYGISITPLNAGHMIGGTIWKIVKVGEEDIVYATDFNHKKERHLSGCELDRLQRPSLLITDAYNAQYQQARRRARDEKLMTNILQTVRNNGNVLIAVDTAGRVLELAHMLDQLWKNKESGLMAYSLALLNNVSYNVIEFAKSQIEWMSDKLTKAFEGARNNPFQFKHIQLCHSLADVYKLPAGPKVVLASTPDLESGFTRDLFVQWASNANNSIILTTRTSPGTLAMELVENCAPGKQIELDVRRRVDLEGAELEEYLRTQGEKLNPLIVKPDVEEESSSESEDDIEMSVITGKHDIVVRPEGRHHSGFFKSNKRHHVMFPYHEEKVKCDEYGEIINLDDYRIADATGYEFVPMEEQNKENVKKEEPGIGAEQQANGGIVDNDVQLLEKPTKLISQRKTIEVNAQVQRIDFEGRSDGESMLKILSQLRPRRVIVIHGTAEGTQVVARHCEQNVGARVFTPQKGEIIDVTSEIHIYQVRLTEGLVSQLQFQKGKDAEVAWVDGRLGMRVKAIEAPMDVTVEQDASVQEGKTLTLETLADDEIPIHNSVLINELKLSDFKQTLMRNNINSEFSGGVLWCSNGTLALRRVDAGKVAMEGCLSEEYYKIRELLYEQYAIV
B3: the binding result in assay [6] and in assay [4] was “binds” in each case.

B4: Symplekin (endogenous) (protein, UniProt Q8MSU4 1-1165)
chain: MDSIIGRSQFVSETANLFTDEKTATARAKVVDWCNELVIASPSTKCELLAKVQETVLGSCAELAEEFLESVLSLAHDSNMEVRKQVVAFVEQVCKVKVELLPHVINVVSMLLRDNSAQVIKRVIQACGSIYKNGLQYLCSLMEPGDSAEQAWNILSLIKAQILDMIDNENDGIRTNAIKFLEGVVVLQSFADEDSLKRDGDFSLADVPDHCTLFRREKLQEEGNNILDILLQFHGTTHISSVNLIACTSSLCTIAKMRPIFMGAVVEAFKQLNANLPPTLTDSQVSSVRKSLKMQLQTLLKNRGAFEFASTIRGMLVDLGSSTNEIQKLIPKMDKQEMARRQKRILENAAQSLAKRARLACEQQDQQQREMELDTEELERQKQKSTRVNEKFLAEHFRNPETVVTLVLEFLPSLPTEVPQKFLQEYTPIREMSIQQQVTNISRFFGEQLSEKRLGPGAATFSREPPMRVKKVQAIESTLTAMEVDEDAVQKLSEEEFQRKEEATKKLRETMERAKGEQTVIEKMKERAKTLKLQEITKPLPRNLKEKFLTDAVRRILNSERQCIKGGVSSKRRKLVTVIAATFPDNVRYGIMEFILEDIKQRIDLAFSWLFEEYSLLQGFTRHTYVKTENRPDHAYNELLNKLIFGIGERCDHKDKIILIRRVYLEAPILPEVSIGHLVQLSLDDEFSQHGLELIKDLAVLRPPRKNRFVRVLLNFSVHERLDLRDLAQAHLVSLYHVHKILPARIDEFALEWLKFIEQESPPAAVFSQDFGRPTEEPDWREDTTKVCFGLAFTLLPYKPEVYLQQICQVFVSTSAELKRTILRSLDIPIKKMGVESPTLLQLIEDCPKGMETLVIRIIYILTERVPSPHEELVRRVRDLYQNKVKDVRVMIPVLSGLTRSELISVLPKLIKLNPAVVKEVFNRLLGIGAEFAHQTMAMTPTDILVALHTIDTSVCDIKAIVKATSLCLAERDLYTQEVLMAVLQQLVEVTPLPTLMMRTTIQSLTLYPRLANFVMNLLQRLIIKQVWRQKVIWEGFLKTVQRLKPQSMPILLHLPPAQLVDALQQCPDLRPALSEYAESMQDEPMNGSGITQQVLDIISGKSVDVFVTDESGGYISAEHIKKEAPDPSEISVISTVPVLTSLVPLPVPPPIGSDLNQPLPPGED
Consider B4, for which the binding result in assay [2] and in assay [3] was “binds” throughout.

B5: CPSF73 (endogenous) (protein, UniProt Q9VE51 1-684)
chain: MTQATGDARMPDEESDLLQIKPLGAGQEVGRSCIMLEFKGKKIMLDCGIHPGLSGMDALPYVDLIEADEIDLLFISHFHLDHCGALPWFLMKTSFKGRCFMTHATKAIYRWMLSDYIKISNISTEQMLYTEADLEASMEKIETINFHEERDVMGVRFCAYIAGHVLGAAMFMIEIAGIKILYTGDFSRQEDRHLMAAEVPPMKPDVLITESTYGTHIHEKREDRENRFTSLVQKIVQQGGRCLIPVFALGRAQELLLILDEFWSQNPDLHEIPIYYASSLAKKCMAVYQTYINAMNDRIRRQIAVNNPFVFRHISNLKGIDHFEDIGPCVIMASPGMMQSGLSRELFESWCTDPKNGVIIAGYCVEGTLAKAVLSEPEEITTLSGQKLPLNMSVDYISFSAHTDYQQTSEFIRLLKPTHVVLVHGEQNEMSRLKLALQREYEADASTDIKFYNPRNTHAVDLYFRGEKTAKVMGSLAAKNSEVGSKLSGVLVKRDFKYHLLAPSDLGKYTDMSMSVVTQRQSIPWGSSLSTLELLLDRIGAGCVEVLEAERKLRVFGCIELTVEQKIIVMEWQATHVNDVYADAVLACIMQSELGGTNLKGATKQTKSEDSRFRECLIETLQDTFGDNCVPKMFEGDLLPVTVSGKRAEINLETLAISCAEDDVLRQMLNTTVQKLHQTLVSAL
As to B5, the binding entry in assay [6] and in assay [4] was “binds” in each case.
